Measured values from the supplement of paper PMC12067230.
Single values of this set are uncertain.

Experiment: amyloid nucleation score relative to library mode (yeast Sup35 reporter selection) (log enrichment difference); higher = more amyloid nucleation; sequences are the first 22 residues of the Bri2 peptide extended by up to 12 random residues
Details: random library (experiment): 1;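 active = nucleation score significantly above 0 at FDR 0.05; inactive = not significantly above 0 or absent from output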
Description: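 Random C-terminal extensions of the 22-aa Bri2 peptide by 12 NNK codons; premature stops give shorter extensions. Peptides were fused to the Sup35 nucleation domain in S. cerevisiae [psi-pin-] and selected on -ADE-URA plates for 7 d at 30 °C. The nucleation score is log(output/input), centred to the mode of each of 3 independent libraries (1 input, 3 technical output replicates), with duplicates merged. Sequences absent from the output ('random_non_nuc') were imputed with the library mode value, so they are given as censored (<). Nucleators are scores significantly >0 at FDR 0.05.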
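Note: [psi-pin-] Saccharomyces cerevisiae expressing SupN fusions, induced by 100 µM Cu2SO4, selected 7 d at 30 °C without adenine and uracil, scored by deep sequencing of output versus input.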

With EASNCFAIRHFENKFAVETLICGSSGACSRLRHA as the sequence, how does the amyloid nucleation score read?
The amyloid nucleation score was 3.56.

For EASNCFAIRHFENKFAVETLICHLADMMSRRSGV, which amyloid nucleation score is on record?
The amyloid nucleation score was “inactive”.

For EASNCFAIRHFENKFAVETLICPGLGTYGTCRRW, which amyloid nucleation score is on record?
Its amyloid nucleation score is “inactive”.

For EASNCFAIRHFENKFAVETLICRIRLGKDELKRG, which amyloid nucleation score is on record?
Its amyloid nucleation score is “inactive”.

For EASNCFAIRHFENKFAVETLICYVVGPKSMCSAA, which amyloid nucleation score is on record?
The amyloid nucleation score was “inactive”.

With EASNCFAIRHFENKFAVETLICCMGGTL as the sequence, how does the amyloid nucleation score read?
The amyloid nucleation score was 8.79.

Which amyloid nucleation score does the source give for EASNCFAIRHFENKFAVETLICAGSRGGCRVLRG here?
The amyloid nucleation score was “inactive”.

With EASNCFAIRHFENKFAVETLICLTFLMTPECPCG as the sequence, how does the amyloid nucleation score read?
Its amyloid nucleation score is “inactive”.

With EASNCFAIRHFENKFAVETLICLVYKWAWKGGHV as the sequence, how does the amyloid nucleation score read?
The amyloid nucleation score was -0.0755.

For EASNCFAIRHFENKFAVETLICKSRRRWVRMGLG, which amyloid nucleation score is on record?
Its amyloid nucleation score is “inactive”.

For EASNCFAIRHFENKFAVETLICVIAYFYEYENEE, which amyloid nucleation score is on record?
The amyloid nucleation score was “inactive”.

Which amyloid nucleation score does the source give for EASNCFAIRHFENKFAVETLICVTLGLILLWCLG here?
The amyloid nucleation score was 4.9.

Which amyloid nucleation score does the source give for EASNCFAIRHFENKFAVETLICVILFSRRKWELW here?
The amyloid nucleation score was “inactive”.

Which amyloid nucleation score does the source give for EASNCFAIRHFENKFAVETLICIGVRDSKTYFTT here?
Its amyloid nucleation score is “inactive”.

With EASNCFAIRHFENKFAVETLICFW as the sequence, how does the amyloid nucleation score read?
Its amyloid nucleation score is 7.74.

Which amyloid nucleation score does the source give for EASNCFAIRHFENKFAVETLICFSVMILSEYVVV here?
The amyloid nucleation score was “inactive”.

For EASNCFAIRHFENKFAVETLICMQCAYQYGGSGA, which amyloid nucleation score is on record?
Its amyloid nucleation score is 7.56.

For EASNCFAIRHFENKFAVETLICLAMTCRPGAMSM, which amyloid nucleation score is on record?
The amyloid nucleation score was “inactive”.

With EASNCFAIRHFENKFAVETLICGQLFDRGVTSCA as the sequence, how does the amyloid nucleation score read?
Its amyloid nucleation score is “inactive”.

For EASNCFAIRHFENKFAVETLICVITMLVKCGREV, which amyloid nucleation score is on record?
The amyloid nucleation score was “inactive”.

For EASNCFAIRHFENKFAVETLICGDALDSE, which amyloid nucleation score is on record?
The amyloid nucleation score was -0.0664.

With EASNCFAIRHFENKFAVETLICYVYWNIAGMWAR as the sequence, how does the amyloid nucleation score read?
Its amyloid nucleation score is “inactive”.

With EASNCFAIRHFENKFAVETLICFDESI as the sequence, how does the amyloid nucleation score read?
Its amyloid nucleation score is “inactive”.

For EASNCFAIRHFENKFAVETLICKMLNGA, which amyloid nucleation score is on record?
The amyloid nucleation score was 1.8.

With EASNCFAIRHFENKFAVETLICDRPWPLPPCAWW as the sequence, how does the amyloid nucleation score read?
The amyloid nucleation score was “inactive”.

Which amyloid nucleation score does the source give for EASNCFAIRHFENKFAVETLICVISYMIMSVRSV here?
Its amyloid nucleation score is “inactive”.

Which amyloid nucleation score does the source give for EASNCFAIRHFENKFAVETLICTHMRPRSLGTLL here?
Its amyloid nucleation score is “inactive”.

For EASNCFAIRHFENKFAVETLICECVGVLANRSSD, which amyloid nucleation score is on record?
Its amyloid nucleation score is 6.84.

With EASNCFAIRHFENKFAVETLICGGLSMLMGPLAR as the sequence, how does the amyloid nucleation score read?
The amyloid nucleation score was “inactive”.

For EASNCFAIRHFENKFAVETLICVDALWS, which amyloid nucleation score is on record?
The amyloid nucleation score was “inactive”.

For EASNCFAIRHFENKFAVETLICLNTFCLCIRPQR, which amyloid nucleation score is on record?
Its amyloid nucleation score is 5.05.

For EASNCFAIRHFENKFAVETLICTMG, which amyloid nucleation score is on record?
Its amyloid nucleation score is “inactive”.

For EASNCFAIRHFENKFAVETLICRARWAVRQVWLD, which amyloid nucleation score is on record?
Its amyloid nucleation score is “inactive”.

For EASNCFAIRHFENKFAVETLICLNRQKQVMWSMR, which amyloid nucleation score is on record?
The amyloid nucleation score was “inactive”.

With EASNCFAIRHFENKFAVETLICGLVPVVP as the sequence, how does the amyloid nucleation score read?
The amyloid nucleation score was “inactive”.

Which amyloid nucleation score does the source give for EASNCFAIRHFENKFAVETLICLCGLGLAPWGSQ here?
Its amyloid nucleation score is 5.89.

Same assay, conditions: random library (experiment): 2

For EASNCFAIRHFENKFAVETLICLNL, which amyloid nucleation score is on record?
The amyloid nucleation score was 5.73.

Which amyloid nucleation score does the source give for EASNCFAIRHFENKFAVETLICVGKV here?
The amyloid nucleation score was “inactive”.

Which amyloid nucleation score does the source give for EASNCFAIRHFENKFAVETLICVIKFYSYVWTLG here?
Its amyloid nucleation score is “inactive”.

Which amyloid nucleation score does the source give for EASNCFAIRHFENKFAVETLICYLKTWSLYVVGY here?
Its amyloid nucleation score is “inactive”.

Which amyloid nucleation score does the source give for EASNCFAIRHFENKFAVETLICVSDF here?
The amyloid nucleation score was 3.73.

With EASNCFAIRHFENKFAVETLICAVWFILCFHERS as the sequence, how does the amyloid nucleation score read?
The amyloid nucleation score was 0.571.

For EASNCFAIRHFENKFAVETLICESSILWNEERYV, which amyloid nucleation score is on record?
The amyloid nucleation score was “inactive”.

With EASNCFAIRHFENKFAVETLICHVGKLL as the sequence, how does the amyloid nucleation score read?
Its amyloid nucleation score is “inactive”.

For EASNCFAIRHFENKFAVETLICGYIMTIGGWDV, which amyloid nucleation score is on record?
The amyloid nucleation score was 4.58.

Which amyloid nucleation score does the source give for EASNCFAIRHFENKFAVETLICCLSKERVVVIVG here?
Its amyloid nucleation score is “inactive”.

Which amyloid nucleation score does the source give for EASNCFAIRHFENKFAVETLICLLLFDFSDQIWG here?
Its amyloid nucleation score is “inactive”.

For EASNCFAIRHFENKFAVETLICYFMWMYLTNRGT, which amyloid nucleation score is on record?
Its amyloid nucleation score is “inactive”.

For EASNCFAIRHFENKFAVETLICFFVSYVKMGR, which amyloid nucleation score is on record?
Its amyloid nucleation score is “inactive”.

For EASNCFAIRHFENKFAVETLICEISNDR, which amyloid nucleation score is on record?
Its amyloid nucleation score is -0.131.

For EASNCFAIRHFENKFAVETLICHCMLVHVTRTIW, which amyloid nucleation score is on record?
The amyloid nucleation score was 1.41.

Which amyloid nucleation score does the source give for EASNCFAIRHFENKFAVETLICNHWDVIECGNY here?
The amyloid nucleation score was “inactive”.

For EASNCFAIRHFENKFAVETLICDLSAA, which amyloid nucleation score is on record?
Its amyloid nucleation score is “inactive”.

Which amyloid nucleation score does the source give for EASNCFAIRHFENKFAVETLICHVTTWVSNDPGV here?
Its amyloid nucleation score is -0.0198.

With EASNCFAIRHFENKFAVETLICLSGRIGSQKGGM as the sequence, how does the amyloid nucleation score read?
The amyloid nucleation score was 3.49.

For EASNCFAIRHFENKFAVETLICLRSMHFYFRRGR, which amyloid nucleation score is on record?
The amyloid nucleation score was -0.191.

For EASNCFAIRHFENKFAVETLICPLSFNAGLLN, which amyloid nucleation score is on record?
Its amyloid nucleation score is “inactive”.

With EASNCFAIRHFENKFAVETLICIE as the sequence, how does the amyloid nucleation score read?
The amyloid nucleation score was “inactive”.

For EASNCFAIRHFENKFAVETLICCSKSYLYAPS, which amyloid nucleation score is on record?
Its amyloid nucleation score is 6.53.

With EASNCFAIRHFENKFAVETLICWRSTFLFKFRKR as the sequence, how does the amyloid nucleation score read?
Its amyloid nucleation score is “inactive”.

For EASNCFAIRHFENKFAVETLICVLNLKAFVCGRR, which amyloid nucleation score is on record?
Its amyloid nucleation score is 0.139.

With EASNCFAIRHFENKFAVETLICWFWNLQRSERYM as the sequence, how does the amyloid nucleation score read?
The amyloid nucleation score was “inactive”.

Same assay, conditions: random library (experiment): 3

With EASNCFAIRHFENKFAVETLICMGYKLKHIHKEQ as the sequence, how does the amyloid nucleation score read?
Its amyloid nucleation score is 1.68.

For EASNCFAIRHFENKFAVETLICYNRTNFASRDWN, which amyloid nucleation score is on record?
Its amyloid nucleation score is 4.84.

Which amyloid nucleation score does the source give for EASNCFAIRHFENKFAVETLICLREWDSATYARK here?
The amyloid nucleation score was 4.92.

For EASNCFAIRHFENKFAVETLICQCRVSDAICPLE, which amyloid nucleation score is on record?
Its amyloid nucleation score is “inactive”.

With EASNCFAIRHFENKFAVETLICPVRPSALSSMTQ as the sequence, how does the amyloid nucleation score read?
The amyloid nucleation score was “inactive”.

With EASNCFAIRHFENKFAVETLICVSEVLCPEYILV as the sequence, how does the amyloid nucleation score read?
The amyloid nucleation score was “inactive”.

Which amyloid nucleation score does the source give for EASNCFAIRHFENKFAVETLICCDCLCTLSCGHW here?
Its amyloid nucleation score is 6.46.

Which amyloid nucleation score does the source give for EASNCFAIRHFENKFAVETLICHAKCS here?
The amyloid nucleation score was “inactive”.

With EASNCFAIRHFENKFAVETLICKEYSRSAVGLIK as the sequence, how does the amyloid nucleation score read?
The amyloid nucleation score was “inactive”.

Which amyloid nucleation score does the source give for EASNCFAIRHFENKFAVETLICWKT here?
The amyloid nucleation score was 0.838.

For EASNCFAIRHFENKFAVETLICVSMVNKALRTWR, which amyloid nucleation score is on record?
Its amyloid nucleation score is “inactive”.

With EASNCFAIRHFENKFAVETLICGAIS as the sequence, how does the amyloid nucleation score read?
The amyloid nucleation score was “inactive”.

For EASNCFAIRHFENKFAVETLICGAYTKRAAQPGD, which amyloid nucleation score is on record?
Its amyloid nucleation score is “inactive”.

For EASNCFAIRHFENKFAVETLICRRKVSFTLGCQV, which amyloid nucleation score is on record?
Its amyloid nucleation score is 2.33.

With EASNCFAIRHFENKFAVETLICPYASTFNCQS as the sequence, how does the amyloid nucleation score read?
The amyloid nucleation score was 5.

For EASNCFAIRHFENKFAVETLICFLIGSGSGKHIA, which amyloid nucleation score is on record?
The amyloid nucleation score was 3.24.

For EASNCFAIRHFENKFAVETLICTW, which amyloid nucleation score is on record?
The amyloid nucleation score was “inactive”.

Which amyloid nucleation score does the source give for EASNCFAIRHFENKFAVETLICRAWYDTCMAFNG here?
The amyloid nucleation score was “inactive”.

For EASNCFAIRHFENKFAVETLICECLVALCCYDLP, which amyloid nucleation score is on record?
The amyloid nucleation score was “inactive”.

For EASNCFAIRHFENKFAVETLICITLAKGSYRVWG, which amyloid nucleation score is on record?
Its amyloid nucleation score is “inactive”.

For EASNCFAIRHFENKFAVETLICPEVGKMALAHGG, which amyloid nucleation score is on record?
The amyloid nucleation score was “inactive”.

With EASNCFAIRHFENKFAVETLICGLVWVAWPAVPW as the sequence, how does the amyloid nucleation score read?
The amyloid nucleation score was “inactive”.

With EASNCFAIRHFENKFAVETLICNSLSLATETVVK as the sequence, how does the amyloid nucleation score read?
The amyloid nucleation score was 0.778.

For EASNCFAIRHFENKFAVETLICVWQATSKEVWWW, which amyloid nucleation score is on record?
The amyloid nucleation score was “inactive”.
